Results reported in the RNAGym collection of RNA variant scans (doi:10.1073/pnas.2313332121).
This sample is rich in variants without activity.

B1: TPR 5TU (parent)
chain: GGAUCUUCUCGAUCUAACAAAAAAGACAAAUCUGCCACAAAGCUUGAGAGCAUCUUCGGAUGCAGAGGCGGCAGCCUUCGGUGGCGCGAUAGCGCCAACGUUCUCAACUAUGACACGCAAAACGCGUGCUCCGUUGAAUGGAGUUUAUCAUG

Variants of: B1
Assay: polymerase ribozyme fitness, log enrichment relative to wild type (log ratio); higher = more active; in vitro selection for triplet polymerase activity
Procedure, shortened: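 Fitness measures genotype enrichment against wild-type enrichment on a logarithmic scale, with inverse-variance-weighted averaging of replicates. The logarithm is base 2, and genotypes were kept only with ≥10 input reads and ≥1 read per output in Illumina sequencing. The sequenced libraries came from one triplicate in vitro selection round, including frozen incubation at −7 °C, of PCR-built, transcribed mutant libraries of each subunit of a heterodimeric triplet polymerase ribozyme.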

With GGAUCUUCUCGAUCUAACAAAAAAGACAAAUCUGCCACAAAGCUUGAGAGCAUCUUCGGAUGCAGAGGCGGCAGACUUAGGUGGCGCGAUAGCGCCAACGUUCUCAACUAUGACAUGCAAAACGCGUGCUCCGUUGAAUGGAGUUUAUCAUG [C75A C79A C116U] as the variant, how does the “polymerase ribozyme fitness (log ratio)” value read?
Its value is ≤ -4.2.

With GGAUCUUCUCGAUCUAACAAAAAAGACAAAUCUGCCACAAAGCUUGAGAGCAUCUUCGGAUGCAGAGGCGGCAUCCUUCGGUGGCGCGAUAGCGCCAACGUUCUCAACUAGGACACGCAAAACGCGUGCUCCGUUGAAUGGAGUUUAUCAGG [G74U U111G U151G] as the variant, how does the “polymerase ribozyme fitness (log ratio)” value read?
Its value is ≤ -4.2.

Which “polymerase ribozyme fitness (log ratio)” value does the source give for GGAUCUUCUCGAUCUAACAAAAAAGACAAAUCUGCCACAAAGCUUGAGAGCAUCUUCGGAUGCAGAGGCGGCAGACUUCGGUGGCGCGACAGCGUCAACGUUCUCAGCUAUGACACGCAAAACGCGGGCUCCGUUGAAUGCAGUUUAUCAUG [C75A U90C C95U A107G U127G G141C] here?
The value was ≤ -4.2.

For GGAUCUUCUCGAUCUAACAAAAAAGACAAAUCUGCCACAAAGCUUGAGAGCAUCUUCGGAUGCAGAGGCGGCAGACUUCGGUGGCGCGAUACCGCCAACGUUCUCAACUAUGACACGCAAAACGCGUGCUCCGUUGAAUGGAGUUUAUCAUG [C75A G92C], which “polymerase ribozyme fitness (log ratio)” value is on record?
Its value is ≤ -4.2.

Which “polymerase ribozyme fitness (log ratio)” value does the source give for GGAUCUUCUCGAUCUAACAAAAAAGACAAAUCUGCCACAAAGCUUGAGAGCAUCUUCGGAUGCAGAGGCGGCAGACUUCGGUGGCGCGAUAGCGCCUACGUUCUCAACUAUGACACUCAAAACGCGUGCAACGUUGACUGGAGUUUAUCAUG [C75A A97U G117U U130A C131A A138C] here?
The value was ≤ -4.2.

For GGAUCUUCUCGAUCUAACAAAAAAGACAAAUCUGCCACAAAGCUUGAGAGCAUCUUCGGAUGCAGAGGCGGCAUCCUUCGGUGGCGCAAUAGCGCCAACGUUUUCAACUAUGACACGCAAAACGCGUGCUCCGUUGAAUGGAGUUUAUCAUG [G74U G88A C103U], which “polymerase ribozyme fitness (log ratio)” value is on record?
Its value is ≤ -4.2.

Which “polymerase ribozyme fitness (log ratio)” value does the source give for GGAUCUUCUCGAUCUAACAAAAAAGACAAAUCUGCCACAAAGCUUGAGAGCAUCUUCGGAUGCAGAGGCGGCAGACUUCGGUUGCGCGAUAGCGCCAACGUUCGCAGCUAUGACACGCAAAACGCGUGCUCCGUUGAAUGGAGUUUAUCAUG [C75A G83U U104G A107G] here?
Its value is ≤ -4.2.

For GGAUCUUCUCGAUCUAACAAAAAAGACAAAUCUGCCACAAAGCUUGAGAGCAUCUUCGGAUGCAGAGGCGGCAGACUUCGGUGGCGCGAUAGCGCGAACGUUCUCAACUAUGACACGCAAAACGCGUGCUCCGUUGAAUGGAGUUUAUCAUG [C75A C96G], which “polymerase ribozyme fitness (log ratio)” value is on record?
The value was ≤ -4.2.

With GGAUCUUCUCGAUCUAACAAAAAAGACAAAUCUGCCACAAAGCUUGAGAGCAUCUUCGGAUGCAGAGGCGGCACCCGUCGGUGGCGCGAUAGCGCCAAAGUUACCAACUAUGACACGCAAAACGCGUGCUCAGUGGAAUGGAGAUUAUCAUG [G74C U77G C99A C103A U104C C132A U135G U144A] as the variant, how does the “polymerase ribozyme fitness (log ratio)” value read?
Its value is ≤ -4.2.

For GGAUCUUCUCGAUCUAACAAAAAAGACAAAUCUGCCACAAAGCUUGAGAGCAUCUUCGGAUGCAGAGGCGGCAGACUUCGGUGGCGCGAUAGGGCCAACGUUCUCAACUAUGACACGCAAAACGUGUGCUCCGUUGAAUGGAGUUUAUCAUG [C75A C93G C125U], which “polymerase ribozyme fitness (log ratio)” value is on record?
Its value is ≤ -4.2.

Which “polymerase ribozyme fitness (log ratio)” value does the source give for GGAUCUUCUCGAUCUAACAAAAAAGACAAAUCUGCCACAAAGCUUGAGAGCAUCUUCGGAUGCAGAGGCGGCAGACUUCGGUGGCGCGAUAGCGCCAACGUUCUCAACUAUGACACGCAAAACGCGUGCUCCGUUGAAUCGAGUUUAUCAUG [C75A G140C] here?
Its value is ≤ -4.2.

For GGAUCUUCUCGAUCUAACAAAAAAGACAAAUCUGCCACAAAGCUUGAGAGCAUCUUCGGAUGCAGAGGCGGCAGACUUCGGGGGCGCGAUAGCGGCAACGUUCUCAACUAUGACACGCAAAACGCGUGCUCCGUUGAAUGGAGUUUAUUAUG [C75A U82G C95G C149U], which “polymerase ribozyme fitness (log ratio)” value is on record?
The value was ≤ -4.2.

For GGAUCUUCUCGAUCUAACAAAAAAGACAAAUCUGCCACAAAGCUUGAGAGCAUCUUCGGAUGCAGAGGCGGCAGACUUCGGUGGCGUGAUAGCGCCAACGUUCUCAACUAUGACACGCAAAACGCGUGCUCCGUUGAAUGGAGUUUAUCAUG [C75A C87U], which “polymerase ribozyme fitness (log ratio)” value is on record?
The value was -3.81.

Which “polymerase ribozyme fitness (log ratio)” value does the source give for GGAUCUUCUCGAUCUAACAAAAAAGACAAAUCUGCCACAAAGCUUGAGAGCAUCUUCGGAUGCAGAGGCGGCAGACUUCGGUGGCGAGAUAGCGCCAACGUUCUCAACUAUGACACGCAAAACGCGUGCUCCGUUGAAUGGAGUUUAUCAUG [C75A C87A] here?
The value was ≤ -4.2.

With GGAUCUUCUCGAUCUAACAAAAAAGACAAAUCUGCCACAAAGCUUGAGAGCAUCUUCGGAUGCAGAGGCGGCAGACUUCGGUGGCGGGAUAGCGCCAACGUUCUCAACUAUGACACGCAAAACGCGUGCUCCGUUGAAUGGAAUUUAUCAUG [C75A C87G G143A] as the variant, how does the “polymerase ribozyme fitness (log ratio)” value read?
Its value is ≤ -4.2.

For GGAUCUUCUCGAUCUAACAAAAAAGACAAAUCUGCCACAAAGCUUGAGAGCAUCUUCGGAUGCAGAGGCGGCAGACUUCGGUGGCGCGUUAGUGCCAACGUUCUCAACUAUGACAUGCAAAACGCGUGCUCCGUUGAAUGGAGUUUAUCAGG [C75A A89U C93U C116U U151G], which “polymerase ribozyme fitness (log ratio)” value is on record?
The value was ≤ -4.2.

For GGAUCUUCUCGAUCUAACAAAAAAGACAAAUCUGCCACAAAGCUUGAGAGCAUCUUCGGAUGCAGAGGCGGCAGACUUCGGUGGAGCGAUAGCGCCAACGUUCUCAACUAUGACACGCAAAACGCGUGCUCCGUUGUAUGGAUUUUAUCAUG [C75A C85A A137U G143U], which “polymerase ribozyme fitness (log ratio)” value is on record?
The value was ≤ -4.2.

Which “polymerase ribozyme fitness (log ratio)” value does the source give for GGAUCUUCUCGAUCUAACAAAAAAGACAAAUCUGCCACAAAGCUUGAGAGCAUCUUCGGAUGCAGAGGCGGCAUCCUUCGGUGGCGCGAUAGCGCCAACGUUCUCAACUAUGACACGCAAAACGCGUGCUCCGUUGAAUAGAGUUUAUCAUG [G74U G140A] here?
Its value is ≤ -4.2.

For GGAUCUUCUCGAUCUAACAAAAAAGACAAAUCUGCCACAAAGCUUGAGAGCAUCUUCGGAUGCAGAGGCGGCAGACUUCGCUGGCGCGAUAGCGCCAACGUUCUCAACUAUGACACGCAAAACGCGUGCUCCGUUGAAUGGAGUUUAUCAUG [C75A G81C], which “polymerase ribozyme fitness (log ratio)” value is on record?
Its value is ≤ -4.2.
